The source of these data is the RNAGym collection of RNA variant scans (doi:10.7554/elife.90254).

B1: OR4K15 (parent)
chain: GUUAACGGUCAUAGGCCAUGGAAACUAGGAGCACCAUUUCGCUGCCAGUGAAGAAAUGAACAAAGAAAAUCUGGGCCAGGCAGGCAUCAAAAGAAAUAGUCUUGCGCUCAACCAGAAAGUCUGUAAUCAUUUUAAGGGUA

The source gives no read counts; variants with many changes may rest on few reads.

The series covers variants of B1. Kind of series: self-cleavage, relative activity (ratio to wild type); higher = more cleavage; in vitro, sequencing; the parent is a self-cleaving ribozyme.
In the case of U37C A60G A92U, the self-cleavage stood at 1.78. Take U37C U70C A82G G106A: the self-cleavage was found to be 0.02. With U37G A62G A110G, the self-cleavage worked out at 0.27. Then U37C A60U G80U, with 0.16.

In the case of U38C A66U A92G, the self-cleavage is 2. Turning to U39A A82U A129G, the self-cleavage turned out to be 0.16. In the case of U38C A114G G115U, the self-cleavage is 0. In the case of U37C A114G A117G, the self-cleavage is 0.29. Then U37C A47U A110G, with 0.06; and U38C U87C U100C, with 2.37; and U37C C46U A52G, with 1.8. As to U38C A78G A82G A92G U103C, the self-cleavage was 0.34. In the case of U38C A78G U87A U130C, the self-cleavage amounted to 0.07. For the variant U38C C45A A52G U100C, the self-cleavage is 1.29. With U38C C46U A55G A111G G137A, the self-cleavage is 0.

Turning to U39A U57C A67G A114G, the self-cleavage was found to be 0.41. On to U37C A62G A90G U108C, for which the self-cleavage is 0.

Take U37C A82G U120C: the self-cleavage worked out at 0.13. Next, U38A U39C A62G A94U U108C: 0.01; U37C A55G A92G A140G: 1.39; U39A A82G A118C: 0.27.

For the variant U38C U43A A89G A91U, the self-cleavage was determined as 1.98. For the variant U39A A51C A78G A82U, the self-cleavage is 0.12.

U39C A47G A56G U57G U72G U122C: the self-cleavage amounted to 0.19.

Take U37C G75U A90G A117U A126G: the self-cleavage was 0.05. Then U38C U49C G104U, with 0.02; and U37C A110G A126G, with 0.1; and U38C A98G A117G, with 1.21. Next, U38C U87C A95G G138C: 1.51; U38A A111C U127C: 0.02.

Consider U37C A55G U100C, for which the self-cleavage turned out to be 2.08. As to U39A U87C A94G, the self-cleavage was 1.53. U37C A55G A62G A82G A116U: the self-cleavage came to 0.07. Consider U37C A95G A135G, for which the self-cleavage was 1.4. On to U38C A60G A78G, for which the self-cleavage is 0.26. For the variant U37C A96G A118G, the self-cleavage came out at 1.08.

U39A A54U A94G U108A: the self-cleavage is 0.01. Next, U38C G41A A55G: 1.41; U37C A55U A78G A94G: 0.18; U37C A68G A92U A96G U102C U108A U130C: 0.01. Turning to U37C A63G U100C, the self-cleavage turned out to be 2.18. Then U39A A69G A140G, with 0.35; and U39A A56G A63G A69G A78G, with 0.42; and U38C A51G A95G, with 1.61. U37A A94G A134G: the self-cleavage turned out to be 2.08.

In the case of U37C A114G U132C, the self-cleavage came to 0.87. On to U37C A55G U70A U102C A116G, for which the self-cleavage stood at 1.66. Take U38C U49C U87C U124C: the self-cleavage stood at 1.31. U37C A63G A116G: the self-cleavage was 1.39.

As to U38C A47G G74A U130C, the self-cleavage was determined as 0.23. Take U38A U43C U70C A94G A114G: the self-cleavage was found to be 0.04. With U38C G119A U132C, the self-cleavage is 1.97.

As for U38C A67G A68G, the self-cleavage worked out at 0.97. For the variant U38C G74C A91G, the self-cleavage worked out at 0.14. As to U38C C42U A54G, the self-cleavage is 1.16. For U38C U43A A78G, the self-cleavage came to 0.38. Next, U39A C46A A59G: 0.52. For the variant U38C A66G A68G A110G, the self-cleavage was 0.12.

U37A U49C G84A A111G A135G: the self-cleavage came out at 0.

Regarding U37C U100C A116U, the self-cleavage is 1.15. For the variant U39A A56G A63G, the self-cleavage stood at 1.15. With U37C A54G U131C, the self-cleavage stood at 0.57. Next, U38C C45U A51U: 1.57; U37C A47G U57C A111G A118G U122C: 0.01. U39A A60G A67G U108C G119A: the self-cleavage turned out to be 0.02. Then U39A A54U A94G U127C U130C, with 0.46.

U38C A114U A116G: the self-cleavage was determined as 0.03. Regarding U37C U39C A56G A86G, the self-cleavage came to 2.34.

Consider U37C G48A A69U A95G A135U, for which the self-cleavage is 0.86. U38C U43C A94G: the self-cleavage amounted to 1.34. As to U39A A98C G106A, the self-cleavage was 0.01. Regarding U37C A52G A94G, the self-cleavage was 0.89. For U38C A55G U122C, the self-cleavage came to 0.99. With U38C G44A G79A A89G A118G, the self-cleavage is 0.06. Consider U38C A60U U132C, for which the self-cleavage came out at 1.09.

In the case of U37C A59G A69U U87C U102C U108C U139A, the self-cleavage amounted to 0. As for U37C U120C A140G, the self-cleavage amounted to 0.91. Then U38A A118G A125G, with 0.13. Then U37C A54G A55G A68G A69G A90G A118G, with 0.26; and U38A A68G A89G A91G, with 1.25. As for U38C U103C A118G U127C, the self-cleavage was 0.12. For the variant U39A A52C U57C A60C A96G, the self-cleavage is 0.69.

Consider U37C A59G U120G, for which the self-cleavage was found to be 2.45. Then U38C U103C A116U U120C, with 0.03. Take U37C U49C A51U U57C A63U C85U A96G U122A: the self-cleavage was 0.14. U37C A59U G104A: the self-cleavage came out at 0.06. Then U39A A62G U103C U132C, with 0.77; and U37C A78C U108C, with 0.01. With U37C A89G A91U U100C, the self-cleavage is 2.67. Next, U37C G41A A59G A111G: 0.02; U37C A64G G106C A118G: 0. For U38C U57G A67G G73U, the self-cleavage is 0.09. Then U38A G73U C85U, with 0.27. In the case of U37C A86U A116G, the self-cleavage turned out to be 0.53. In the case of U37C A67G A90G A114U, the self-cleavage was 0. Regarding U39A A54G A78G U130C, the self-cleavage amounted to 0.13. With U37C A69G U100C, the self-cleavage worked out at 0.94.

Regarding U37C A51G U57C A64G U103C C113A G123U, the self-cleavage amounted to 0.03. U38C G41A U43C A60G A96G U132C: the self-cleavage was found to be 1.12.

Turning to U38C A68G C105A, the self-cleavage was determined as 0.03. Consider U38C U43A U57C A110G, for which the self-cleavage worked out at 0.2.

With U38C G41C A118G, the self-cleavage came out at 0.89. U38C A96U U100A: the self-cleavage was 0.33. In the case of U37C A63G A67G A68G A126G U132C, the self-cleavage was found to be 0.42. With U37C A60G G79A, the self-cleavage was determined as 0.13.

Regarding U37G A55G A62G U127C, the self-cleavage was 1.65. Consider U38C U49A A59U C107U, for which the self-cleavage was determined as 0.03. For the variant U37A U39A A67G, the self-cleavage is 1.24. Next, U37G A51G A68G A89G: 0.8; U38C U43G A82U: 0.14. U37C A89G A94G U132A: the self-cleavage came out at 0.67. For U37C A55G A126G, the self-cleavage stood at 0.76. For U37C A67C A78U A135G, the self-cleavage worked out at 0.43.

Turning to U38C A62G A92G A118G, the self-cleavage stood at 1.76. Turning to U38C A51G U132C, the self-cleavage is 1. Turning to U37C G84A C88U A96G C105G A129G, the self-cleavage was 0.

With U38A G74C A114G, the self-cleavage stood at 0.05. As for U37C U49A A69G A82G A89G A129U, the self-cleavage worked out at 0.28.

In the case of U38C A116G U127A, the self-cleavage was 0.98.

With U38C A89C U102C, the self-cleavage was found to be 2.48. Next, U38C A111G U131C: 0.01; U37A U38C A64C: 0.88; U37A U39C U49A: 1.38.

On to U37A A86G A126G, for which the self-cleavage came to 1.05.

In the case of U38G U49A A56G A68G, the self-cleavage came to 1.38. Consider U39A A52G A64G A94G A116U U122A, for which the self-cleavage was found to be 0.48.

Turning to U37C A111G A117G, the self-cleavage came to 0.02. Consider U38C A78C U103C, for which the self-cleavage was found to be 0.25. As to U37C C81U A89G A126U, the self-cleavage turned out to be 0.24. As to U38A A66U A117G U130C, the self-cleavage was found to be 0.71. Turning to U37C U38C A54G C76A U127C, the self-cleavage was determined as 0.08. U37C A52G U108C: the self-cleavage is 0.03. In the case of U37C A52G U108A, the self-cleavage was 0.04. As for U37G A60G A68G U132C, the self-cleavage was 0.17. Turning to U38C G75U A111G, the self-cleavage stood at 0.03. For U39C A47G A52G A117G, the self-cleavage was 1.97. For the variant U38C A67G U108C, the self-cleavage was determined as 0.03. Consider U37C A60C A116G, for which the self-cleavage was found to be 1.09. Regarding U39A G50A U100C U122C, the self-cleavage was found to be 2.03. For U37C A54G A86U U97C A129G, the self-cleavage was 1.18. Then U37C A59U A60G A96G A110G U133C, with 0.11. On to U38C A60G U103G A116G, for which the self-cleavage was 0.01. On to U39A G44A U127C, for which the self-cleavage came to 0.2. On to U37C A59G A60U, for which the self-cleavage was determined as 1.35.

With U38C G79A A118U A129U, the self-cleavage amounted to 0.09. With U39A G48A A51G A134G, the self-cleavage was 1.18.

Consider U39A A92G U130C A135G, for which the self-cleavage was 1.28. Next, U38C A54G A82G: 0.28; U37A U38C U57C A91G U103C: 0.42. On to U38C U72A U124A, for which the self-cleavage amounted to 0.19.

For U39A U43C A66G A90G, the self-cleavage was determined as 1.29. U38A A51G A59G U108A C128U U132C: the self-cleavage stood at 0.03. In the case of U39A A62G A89U, the self-cleavage is 1.84. In the case of U38C G41C A52G, the self-cleavage turned out to be 2.53.

Regarding U38C A64G U102A U132C, the self-cleavage turned out to be 0.33. As to U39A A69G G84A A90G U100C, the self-cleavage worked out at 0.32.

As for U38C G48U A67U U100C, the self-cleavage was found to be 1.87.

Take U39A A86G U131C: the self-cleavage is 1.34.

U38C A56G C61U A134G: the self-cleavage is 1.26. As for U38C A59G A68G U102A U103C U108C, the self-cleavage is 0.03.

Regarding U39A A51G A54U A90G, the self-cleavage was 1.67. Next, U38C A60G A68U C121A: 2.82; U38A U39A A89U: 1.85; U39A A66G A95G: 2.16. As to U37C U38C A111G A135U, the self-cleavage is 0.01. On to U38C A67G U131C, for which the self-cleavage turned out to be 1.23. As to U37C A47G A54G U72C A89U A135G, the self-cleavage stood at 0.4.
